The list shows a part of the results.

The record followed here is publication PMC12820563, “FoxP3 forms a head-to-head dimer in vivo and stabilizes its multimerization on adjacent microsatellites”.

This test has as its target T1, MBP-FoxP1dN (Mus musculus, UniProt P58462 326-579).
T1 sequence: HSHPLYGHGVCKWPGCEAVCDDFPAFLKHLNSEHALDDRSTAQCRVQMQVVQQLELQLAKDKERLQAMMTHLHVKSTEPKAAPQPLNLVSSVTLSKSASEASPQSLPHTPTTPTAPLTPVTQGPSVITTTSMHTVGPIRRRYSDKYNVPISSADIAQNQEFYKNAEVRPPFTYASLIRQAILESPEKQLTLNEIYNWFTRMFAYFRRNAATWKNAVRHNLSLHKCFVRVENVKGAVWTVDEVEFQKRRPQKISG
The experiment in a line: PD-seq (MBP pull-down with sequencing); 20 mM Tris-HCl pH 7.5, 100 mM NaCl, 1.5 mM MgCl2, 0.4 uM protein, 0.1 uM dsDNA library, 30 min, room temperature, amylose pull-down; high values mean tight binding. The conditions noted are these: protein: recombinant; tags: His6-MBP; chain copies: 2; dsDNA, one strand shown. The procedure, abridged:
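Amylose resin was used to capture complexes formed during 30 min at room temperature in Tris pH 7.5 buffer with NaCl and MgCl2 between 0.4 µM His6-MBP-tagged mouse FoxP3 or FoxP1 fragment lacking the N-terminus, expressed in E. coli, and 0.1 µM Klenow-filled double-stranded degenerate DNA library. After three washes, the DNA was released with proteinase K, barcoded by PCR and sequenced on Illumina. Binding is pooled-replicate reads-per-million enrichment, pull-down over input.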
As to “GATGATTGTTCTCCCAGCTGATGAATTTATAGGGTCGAGTAAACAAATTTTCCTAATCTTTCTGTTCAAGCGCCATCTAC”, the binding signal is 0.95 RPM ratio (pull-down/input).

“GATGATTGTTCTCCCAGCTGATGAATTCAGACTGTCGAGTAAACAAATTTTCCTAATCTTTCTGTTCAAGCGCCATCTAC”: the binding signal was 0.769 RPM ratio (pull-down/input).

Regarding “GATGATTGTTCTCCCAGCTGATGAATTGCATAGGTCGAGTAAACAAATTTTCCTAATCTTTCTGTTCAAGCGCCATCTAC”, the binding signal is 1.02 RPM ratio (pull-down/input).

As to “GATGATTGTTCTCCCAGCTGATGAATTTGTCCTTTCGAGTAAACAAATTTTCCTAATCTTTCTGTTCAAGCGCCATCTAC”, the binding signal is 1.08 RPM ratio (pull-down/input).

For the sequence “GATGATTGTTCTCCCAGCTGATGAATTATTATTCTCGAGTAAACAAATTTTCCTAATCTTTCTGTTCAAGCGCCATCTAC”, the binding signal was 1.45 RPM ratio (pull-down/input).

Regarding “GATGATTGTTCTCCCAGCTGATGAATTAGCCCCGTCGAGTAAACAAATTTTCCTAATCTTTCTGTTCAAGCGCCATCTAC”, the binding signal was 0.812 RPM ratio (pull-down/input).

As for “GATGATTGTTCTCCCAGCTGATGAATTTTACCCATCGAGTAAACAAATTTTCCTAATCTTTCTGTTCAAGCGCCATCTAC”, the binding signal is 0.932 RPM ratio (pull-down/input).

As to “GATGATTGTTCTCCCAGCTGATGAATTCCGGGATTCGAGTAAACAAATTTTCCTAATCTTTCTGTTCAAGCGCCATCTAC”, the binding signal is 0.754 RPM ratio (pull-down/input).

For “GATGATTGTTCTCCCAGCTGATGAATTCACTACTTCGAGTAAACAAATTTTCCTAATCTTTCTGTTCAAGCGCCATCTAC”, the binding signal was 0.901 RPM ratio (pull-down/input).

With “GATGATTGTTCTCCCAGCTGATGAATTTAATGAGTCGAGTAAACAAATTTTCCTAATCTTTCTGTTCAAGCGCCATCTAC”, the binding signal was 0.912 RPM ratio (pull-down/input).

On to “GATGATTGTTCTCCCAGCTGATGAATTACTGTGCTCGAGTAAACAAATTTTCCTAATCTTTCTGTTCAAGCGCCATCTAC”, for which the binding signal was 0.973 RPM ratio (pull-down/input).

With “GATGATTGTTCTCCCAGCTGATGAATTAATTATTTCGAGTAAACAAATTTTCCTAATCTTTCTGTTCAAGCGCCATCTAC”, the binding signal was 1.12 RPM ratio (pull-down/input).

On to “GATGATTGTTCTCCCAGCTGATGAATTGCGTAAATCGAGTAAACAAATTTTCCTAATCTTTCTGTTCAAGCGCCATCTAC”, for which the binding signal was 1.48 RPM ratio (pull-down/input).

“GATGATTGTTCTCCCAGCTGATGAATTCTGTTAGTCGAGTAAACAAATTTTCCTAATCTTTCTGTTCAAGCGCCATCTAC”: the binding signal is 1.29 RPM ratio (pull-down/input).

In the case of “GATGATTGTTCTCCCAGCTGATGAATTACATGCGTCGAGTAAACAAATTTTCCTAATCTTTCTGTTCAAGCGCCATCTAC”, the binding signal was 1.3 RPM ratio (pull-down/input).

For “GATGATTGTTCTCCCAGCTGATGAATTAAAGACTTCGAGTAAACAAATTTTCCTAATCTTTCTGTTCAAGCGCCATCTAC”, the binding signal is 0.85 RPM ratio (pull-down/input).

For the sequence “GATGATTGTTCTCCCAGCTGATGAATTATCGCGGTCGAGTAAACAAATTTTCCTAATCTTTCTGTTCAAGCGCCATCTAC”, the binding signal is 0.917 RPM ratio (pull-down/input).

As to “GATGATTGTTCTCCCAGCTGATGAATTAACTCGCTCGAGTAAACAAATTTTCCTAATCTTTCTGTTCAAGCGCCATCTAC”, the binding signal is 0.834 RPM ratio (pull-down/input).

“GATGATTGTTCTCCCAGCTGATGAATTAACTGGGTCGAGTAAACAAATTTTCCTAATCTTTCTGTTCAAGCGCCATCTAC”: the binding signal was 0.811 RPM ratio (pull-down/input).

Take “GATGATTGTTCTCCCAGCTGATGAATTGTTCATATCGAGTAAACAAATTTTCCTAATCTTTCTGTTCAAGCGCCATCTAC”: the binding signal is 1.31 RPM ratio (pull-down/input).

“GATGATTGTTCTCCCAGCTGATGAATTTCACTATTCGAGTAAACAAATTTTCCTAATCTTTCTGTTCAAGCGCCATCTAC”: the binding signal is 0.88 RPM ratio (pull-down/input).

“GATGATTGTTCTCCCAGCTGATGAATTGATGAATTCGAGTAAACAAATTTTCCTAATCTTTCTGTTCAAGCGCCATCTAC”: the binding signal was 1.07 RPM ratio (pull-down/input).

Regarding “GATGATTGTTCTCCCAGCTGATGAATTAAACACCTCGAGTAAACAAATTTTCCTAATCTTTCTGTTCAAGCGCCATCTAC”, the binding signal was 1.18 RPM ratio (pull-down/input).

For the sequence “GATGATTGTTCTCCCAGCTGATGAATTGCTGAAGTCGAGTAAACAAATTTTCCTAATCTTTCTGTTCAAGCGCCATCTAC”, the binding signal is 0.994 RPM ratio (pull-down/input).

As to “GATGATTGTTCTCCCAGCTGATGAATTTTTAACGTCGAGTAAACAAATTTTCCTAATCTTTCTGTTCAAGCGCCATCTAC”, the binding signal was 0.955 RPM ratio (pull-down/input).

Take “GATGATTGTTCTCCCAGCTGATGAATTCATTCCCTCGAGTAAACAAATTTTCCTAATCTTTCTGTTCAAGCGCCATCTAC”: the binding signal was 0.873 RPM ratio (pull-down/input).

Consider “GATGATTGTTCTCCCAGCTGATGAATTATTCGAATCGAGTAAACAAATTTTCCTAATCTTTCTGTTCAAGCGCCATCTAC”, for which the binding signal is 1.11 RPM ratio (pull-down/input).

With “GATGATTGTTCTCCCAGCTGATGAATTCTGTCAATCGAGTAAACAAATTTTCCTAATCTTTCTGTTCAAGCGCCATCTAC”, the binding signal is 1.21 RPM ratio (pull-down/input).

On to “GATGATTGTTCTCCCAGCTGATGAATTTCTATCATCGAGTAAACAAATTTTCCTAATCTTTCTGTTCAAGCGCCATCTAC”, for which the binding signal was 1.03 RPM ratio (pull-down/input).

For the sequence “GATGATTGTTCTCCCAGCTGATGAATTCACTAATTCGAGTAAACAAATTTTCCTAATCTTTCTGTTCAAGCGCCATCTAC”, the binding signal was 0.938 RPM ratio (pull-down/input).

Consider “GATGATTGTTCTCCCAGCTGATGAATTCTGGGGGTCGAGTAAACAAATTTTCCTAATCTTTCTGTTCAAGCGCCATCTAC”, for which the binding signal was 0.685 RPM ratio (pull-down/input).

Take “GATGATTGTTCTCCCAGCTGATGAATTGGCTTCGTCGAGTAAACAAATTTTCCTAATCTTTCTGTTCAAGCGCCATCTAC”: the binding signal was 0.868 RPM ratio (pull-down/input).

With “GATGATTGTTCTCCCAGCTGATGAATTTTGCTGCTCGAGTAAACAAATTTTCCTAATCTTTCTGTTCAAGCGCCATCTAC”, the binding signal was 1.03 RPM ratio (pull-down/input).

For the sequence “GATGATTGTTCTCCCAGCTGATGAATTGAGTTCCTCGAGTAAACAAATTTTCCTAATCTTTCTGTTCAAGCGCCATCTAC”, the binding signal was 0.817 RPM ratio (pull-down/input).

Turning to “GATGATTGTTCTCCCAGCTGATGAATTTGTTGGATCGAGTAAACAAATTTTCCTAATCTTTCTGTTCAAGCGCCATCTAC”, the binding signal is 1.14 RPM ratio (pull-down/input).

In the case of “GATGATTGTTCTCCCAGCTGATGAATTTCGGCGTTCGAGTAAACAAATTTTCCTAATCTTTCTGTTCAAGCGCCATCTAC”, the binding signal was 0.861 RPM ratio (pull-down/input).

For the sequence “GATGATTGTTCTCCCAGCTGATGAATTCCGAATATCGAGTAAACAAATTTTCCTAATCTTTCTGTTCAAGCGCCATCTAC”, the binding signal was 0.932 RPM ratio (pull-down/input).

Turning to “GATGATTGTTCTCCCAGCTGATGAATTTTGAGGGTCGAGTAAACAAATTTTCCTAATCTTTCTGTTCAAGCGCCATCTAC”, the binding signal was 0.774 RPM ratio (pull-down/input).

With “GATGATTGTTCTCCCAGCTGATGAATTAGGCCAGTCGAGTAAACAAATTTTCCTAATCTTTCTGTTCAAGCGCCATCTAC”, the binding signal is 0.868 RPM ratio (pull-down/input).

On to “GATGATTGTTCTCCCAGCTGATGAATTCGGACCCTCGAGTAAACAAATTTTCCTAATCTTTCTGTTCAAGCGCCATCTAC”, for which the binding signal was 0.79 RPM ratio (pull-down/input).
